Experimental data published in publication PMC9911399, “Two distinct binding modes provide the RNA-binding protein RbFox with extraordinary sequence specificity”.
Positions count from the first letter of the chain named. The list shows a part of the results.

T1: RBFOX1 RRM RbFoxmut (Fox-RRM*) (Homo sapiens, UniProt Q9NWB1 109-208, R118D;E147R;N151S;E152T)
T1 sequence: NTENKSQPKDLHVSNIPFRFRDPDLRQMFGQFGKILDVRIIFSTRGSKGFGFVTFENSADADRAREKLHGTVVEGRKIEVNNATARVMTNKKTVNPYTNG

B1: CAAGUAC (DNA:RNA)
RNA: GGGAGACCGGAAUUCAGAUUGUCCCAAGUACUUAAAUCCCGUCGUAGCCACCA
DNA 1: CAATCTGAATTCCGGTCTCCC
DNA 2: TGGTGGCTACGACGGGATT
B2: GGGCCGA (DNA:RNA)
RNA: GGGAGACCGGAAUUCAGAUUGUCCGGGCCGAUUAAAUCCCGUCGUAGCCACCA
DNA 1: CAATCTGAATTCCGGTCTCCC
DNA 2: TGGTGGCTACGACGGGATT
B3: GGAGACG (DNA:RNA)
RNA: B1 RNA with C25G, A26G, U29A, A30C, C31G
DNA 1: CAATCTGAATTCCGGTCTCCC
DNA 2: TGGTGGCTACGACGGGATT
B4: AAUCUCA (DNA:RNA)
RNA: B1 RNA with C25A, A27U, G28C, A30C, C31A
DNA 1: CAATCTGAATTCCGGTCTCCC
DNA 2: TGGTGGCTACGACGGGATT
B5: UCUCGCA (DNA:RNA)
RNA: B2 RNA with G25U, G26C, G27U, C29G, G30C
DNA 1: CAATCTGAATTCCGGTCTCCC
DNA 2: TGGTGGCTACGACGGGATT
B6: AACUGAC (DNA:RNA)
RNA: B1 RNA with C25A, A27C, G28U, U29G
DNA 1: CAATCTGAATTCCGGTCTCCC
DNA 2: TGGTGGCTACGACGGGATT
B7: CAAUCUG (DNA:RNA)
RNA: B1 RNA with G28U, U29C, A30U, C31G
DNA 1: CAATCTGAATTCCGGTCTCCC
DNA 2: TGGTGGCTACGACGGGATT
B8: GCCAUAU (DNA:RNA)
RNA: B1 RNA with C25G, A26C, A27C, G28A, C31U
DNA 1: CAATCTGAATTCCGGTCTCCC
DNA 2: TGGTGGCTACGACGGGATT
B9: CAUACCA (DNA:RNA)
RNA: B1 RNA with A27U, G28A, U29C, A30C, C31A
DNA 1: CAATCTGAATTCCGGTCTCCC
DNA 2: TGGTGGCTACGACGGGATT
B10: UACAUGG (DNA:RNA)
RNA: B1 RNA with C25U, A27C, G28A, A30G, C31G
DNA 1: CAATCTGAATTCCGGTCTCCC
DNA 2: TGGTGGCTACGACGGGATT
B11: GUUGCGG (DNA:RNA)
RNA: B2 RNA with G26U, G27U, C28G, A31G
DNA 1: CAATCTGAATTCCGGTCTCCC
DNA 2: TGGTGGCTACGACGGGATT
B12: UGAGGAA (DNA:RNA)
RNA: B1 RNA with C25U, A26G, U29G, C31A
DNA 1: CAATCTGAATTCCGGTCTCCC
DNA 2: TGGTGGCTACGACGGGATT
B13: AGCGGCG (DNA:RNA)
RNA: B1 RNA with C25A, A26G, A27C, U29G, A30C, C31G
DNA 1: CAATCTGAATTCCGGTCTCCC
DNA 2: TGGTGGCTACGACGGGATT
B14: ACGACUG (DNA:RNA)
RNA: B2 RNA with G25A, G26C, C28A, G30U, A31G
DNA 1: CAATCTGAATTCCGGTCTCCC
DNA 2: TGGTGGCTACGACGGGATT
B15: CUAUGGA (DNA:RNA)
RNA: B1 RNA with A26U, G28U, U29G, A30G, C31A
DNA 1: CAATCTGAATTCCGGTCTCCC
DNA 2: TGGTGGCTACGACGGGATT
B16: CGCUAAC (DNA:RNA)
RNA: B1 RNA with A26G, A27C, G28U, U29A
DNA 1: CAATCTGAATTCCGGTCTCCC
DNA 2: TGGTGGCTACGACGGGATT
B17: UUGGCUG (DNA:RNA)
RNA: B2 RNA with G25U, G26U, C28G, G30U, A31G
DNA 1: CAATCTGAATTCCGGTCTCCC
DNA 2: TGGTGGCTACGACGGGATT
B18: UUCACCG (DNA:RNA)
RNA: B2 RNA with G25U, G26U, G27C, C28A, G30C, A31G
DNA 1: CAATCTGAATTCCGGTCTCCC
DNA 2: TGGTGGCTACGACGGGATT
B19: GUUGCAU (DNA:RNA)
RNA: B1 RNA with C25G, A26U, A27U, U29C, C31U
DNA 1: CAATCTGAATTCCGGTCTCCC
DNA 2: TGGTGGCTACGACGGGATT
B20: AGAAUGU (DNA:RNA)
RNA: B1 RNA with C25A, A26G, G28A, A30G, C31U
DNA 1: CAATCTGAATTCCGGTCTCCC
DNA 2: TGGTGGCTACGACGGGATT
B21: CGUGUCA (DNA:RNA)
RNA: B1 RNA with A26G, A27U, A30C, C31A
DNA 1: CAATCTGAATTCCGGTCTCCC
DNA 2: TGGTGGCTACGACGGGATT
B22: AGCCGUA (DNA:RNA)
RNA: B2 RNA with G25A, G27C, C29G, G30U
DNA 1: CAATCTGAATTCCGGTCTCCC
DNA 2: TGGTGGCTACGACGGGATT
B23: AUCGUGC (DNA:RNA)
RNA: B1 RNA with C25A, A26U, A27C, A30G
DNA 1: CAATCTGAATTCCGGTCTCCC
DNA 2: TGGTGGCTACGACGGGATT
B24: GAACUGC (DNA:RNA)
RNA: B1 RNA with C25G, G28C, A30G
DNA 1: CAATCTGAATTCCGGTCTCCC
DNA 2: TGGTGGCTACGACGGGATT
B25: UUUUUAG (DNA:RNA)
RNA: B1 RNA with C25U, A26U, A27U, G28U, C31G
DNA 1: CAATCTGAATTCCGGTCTCCC
DNA 2: TGGTGGCTACGACGGGATT
B26: CAUAUCU (DNA:RNA)
RNA: B1 RNA with A27U, G28A, A30C, C31U
DNA 1: CAATCTGAATTCCGGTCTCCC
DNA 2: TGGTGGCTACGACGGGATT
B27: GGCCGCG (DNA:RNA)
RNA: B2 RNA with G27C, C29G, G30C, A31G
DNA 1: CAATCTGAATTCCGGTCTCCC
DNA 2: TGGTGGCTACGACGGGATT
B28: CAGCUCC (DNA:RNA)
RNA: B1 RNA with A27G, G28C, A30C
DNA 1: CAATCTGAATTCCGGTCTCCC
DNA 2: TGGTGGCTACGACGGGATT
B29: AUGCCUC (DNA:RNA)
RNA: B2 RNA with G25A, G26U, G30U, A31C
DNA 1: CAATCTGAATTCCGGTCTCCC
DNA 2: TGGTGGCTACGACGGGATT
B30: UCUAAGU (DNA:RNA)
RNA: B2 RNA with G25U, G26C, G27U, C28A, C29A, A31U
DNA 1: CAATCTGAATTCCGGTCTCCC
DNA 2: TGGTGGCTACGACGGGATT
B31: CCUAUUG (DNA:RNA)
RNA: B1 RNA with A26C, A27U, G28A, A30U, C31G
DNA 1: CAATCTGAATTCCGGTCTCCC
DNA 2: TGGTGGCTACGACGGGATT

Each binder was assayed against T1, RBFOX1 RRM RbFoxmut (Fox-RRM*) (assay: EMSA; HiTS-Eq, 1 nM pool, 10 min; buffer printed only for the single-RNA assays: 10 mM Tris pH 7.5, 150 mM NaCl, 3.4 mM EDTA, 0.001% NP-40, 30 C). Settings: tags: His6 N-terminal (pET28a); label: 5' 32P.
Outline: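 Purified RbFox RRM, wild type or mutant, was incubated for 10 min in 50 µL with 1 nM of a 5′-radiolabelled RNA pool carrying 7 randomized nucleotides, whose flanks were annealed to DNA oligonucleotides, over a series of increasing protein concentrations. Unbound RNA was resolved on 8% native PAGE, cut out, reverse-transcribed, barcoded by PCR and sequenced on an Illumina HiSeq 2500. Relative association constants were derived from changes in read counts for each RNA species versus the control reaction and normalised to the cognate motif.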
In the case of B1, the binding signal is reported as 0.1 KA relative to UGCAUGU.
In the case of B2, the binding signal is reported as 0.154 KA relative to UGCAUGU.
With B3 the binding signal was 0.0869 KA relative to UGCAUGU.
In the case of B4, the binding signal is reported as 0.0581 KA relative to UGCAUGU.
In the case of B5, the binding signal is reported as 0.123 KA relative to UGCAUGU.
B6 was tested, and the binding signal was 0.0697 KA relative to UGCAUGU.
B7 was tested, and the binding signal was 0.0605 KA relative to UGCAUGU.
For B8, the binding signal was 0.0922 KA relative to UGCAUGU.
For B9, the binding signal was 0.106 KA relative to UGCAUGU.
For B10, the binding signal was 0.0424 KA relative to UGCAUGU.
In the case of B11, the binding signal is reported as 0.0792 KA relative to UGCAUGU.
With B12 the binding signal was 0.0904 KA relative to UGCAUGU.
In the case of B13, the binding signal is reported as 0.138 KA relative to UGCAUGU.
For B14, the binding signal was 0.154 KA relative to UGCAUGU.
With B15 the binding signal was 0.0791 KA relative to UGCAUGU.
For B16, the binding signal was 0.111 KA relative to UGCAUGU.
In the case of B17, the binding signal is reported as 0.435 KA relative to UGCAUGU.
For B18, the binding signal was 0.112 KA relative to UGCAUGU.
For B19, the binding signal was 0.139 KA relative to UGCAUGU.
B20 was tested, and the binding signal was 0.798 KA relative to UGCAUGU.
For B21, the binding signal was 0.121 KA relative to UGCAUGU.
B22 was tested, and the binding signal was 0.0985 KA relative to UGCAUGU.
For B23, the binding signal was 0.196 KA relative to UGCAUGU.
For B24, the binding signal was 0.0791 KA relative to UGCAUGU.
For B25, the binding signal was 0.151 KA relative to UGCAUGU.
With B26 the binding signal was 0.0973 KA relative to UGCAUGU.
With B27 the binding signal was 0.101 KA relative to UGCAUGU.
For B28, the binding signal was 0.0583 KA relative to UGCAUGU.
In the case of B29, the binding signal is reported as 0.078 KA relative to UGCAUGU.
With B30 the binding signal was 0.0999 KA relative to UGCAUGU.
In the case of B31, the binding signal is reported as 0.0911 KA relative to UGCAUGU.
